These results are taken from the supplement of paper PMC4604168 (melanoma cell lines).

Some of the results follow. Single values are uncertain, as repeats are few or missing.
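Also: cells treated in 1,536-well plates, then fixed and DAPI-stained, with nuclei counted from automated high-throughput microscope images.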

This assay relates to WM451Lu. The assay is described as follows: cell count relative to DMSO control; melanoma cells; higher = more viable cells. The following applies: library dose: standard library concentration; 72 h.
In turn, `Cc1cc(Nc2cc(N3CCN(C)CC3)nc(Sc3ccc(NC(=O)C4CC4)cc3)n2)n[nH]1` [Tozasertib] + O=C(Nc1cccc(Cl)c1)Nc1ncc(CCNc2ncnc3ccsc23)s1 [SNS314] (first compound 0.03 µM, partner dose 0.004 µM) returned a cell count of 37.9%.

As for `CC[C@]1(O)C[C@H]2CN(CCc3c([nH]c4ccccc34)[C@@](C(=O)OC)(c3cc4c(cc3OC)N(C=O)[C@H]3[C@@](O)(C(=O)OC)[C@H](OC(C)=O)[C@]5(CC)C=CCN6CC[C@]43[C@@H]65)C2)C1` [vincristine] + COc1ccc(Cl)c(Nc2nc3ccccc3nc2NS(=O)(=O)c2cccc(NC(=O)C(C)(C)N)c2)c1 [XL147] (first compound 0.0005 µM, partner dose 4 µM), the cell count was found to be 39.5%.

`CC[C@]1(O)C[C@H]2CN(CCc3c([nH]c4ccccc34)[C@@](C(=O)OC)(c3cc4c(cc3OC)N(C=O)[C@H]3[C@@](O)(C(=O)OC)[C@H](OC(C)=O)[C@]5(CC)C=CCN6CC[C@]43[C@@H]65)C2)C1` [vincristine] + CO[C@H]1C[C@@H]2CC[C@@H](C)[C@@](O)(O2)C(=O)C(=O)N2CCCC[C@H]2C(=O)O[C@H]([C@H](C)C[C@@H]2CC[C@@H](OCCO)[C@H](OC)C2)CC(=O)[C@H](C)/C=C(\C)[C@@H](O)[C@@H](OC)C(=O)[C@H](C)C[C@H](C)/C=C/C=C/C=C/1C [everolimus] (first compound 0.0005 µM, partner dose 0.1 µM) yielded a cell count of 40.2%.

Compound `N#CC[C@H](C1CCCC1)n1cc(-c2ncnc3[nH]ccc23)cn1` [ruxolitinib] + c1cc(-c2cnn3cc(-c4ccc(OCCN5CCCCC5)cc4)cnc23)ccn1 [Dorsomorphin] (first compound 5 µM, partner dose 2 µM) returned a cell count of 74%.

In the case of `Cc1cc(Nc2cc(N3CCN(C)CC3)nc(Sc3ccc(NC(=O)C4CC4)cc3)n2)n[nH]1` [Tozasertib] + C[C@@H]1CCN(C(=O)CC#N)C[C@@H]1N(C)c1ncnc2[nH]ccc12 [CP690550] (first compound 0.03 µM, partner dose 5 µM), the cell count is 105%.

Take `N#CC[C@H](C1CCCC1)n1cc(-c2ncnc3[nH]ccc23)cn1` [ruxolitinib] + O=c1[nH]nc(Sc2ncc([N+](=O)[O-])s2)n1-c1ccc2c(c1)OCCO2 [BI78D3] (first compound 5 µM, partner dose 1 µM): the cell count was found to be 72.5%.

Turning to `N#CC[C@H](C1CCCC1)n1cc(-c2ncnc3[nH]ccc23)cn1` [ruxolitinib] + OCCn1cc(-c2cnc3nnn(Cc4ccc5ncccc5c4)c3n2)cn1 [PF04217903] (first compound 5 µM, partner dose 5 µM), the cell count stood at 84.6%.

Consider `CC[C@]1(O)C[C@H]2CN(CCc3c([nH]c4ccccc34)[C@@](C(=O)OC)(c3cc4c(cc3OC)N(C=O)[C@H]3[C@@](O)(C(=O)OC)[C@H](OC(C)=O)[C@]5(CC)C=CCN6CC[C@]43[C@@H]65)C2)C1` [vincristine] + O=C(CCCCCCC(=O)Nc1ccccc1)NO [vorinostat] (first compound 0.0005 µM, partner dose 0.4 µM), for which the cell count was 21.2%.

Compound `N#CC[C@H](C1CCCC1)n1cc(-c2ncnc3[nH]ccc23)cn1` [ruxolitinib] + O=C1NC(=O)/C(=C/c2ccc(-c3ccc(F)cc3O)o2)S1 [AS252424] (first compound 5 µM, partner dose 5 µM) yielded a cell count of 124%.

Consider `CC[C@]1(O)C[C@H]2CN(CCc3c([nH]c4ccccc34)[C@@](C(=O)OC)(c3cc4c(cc3OC)N(C=O)[C@H]3[C@@](O)(C(=O)OC)[C@H](OC(C)=O)[C@]5(CC)C=CCN6CC[C@]43[C@@H]65)C2)C1` [vincristine] + O=C1NC(=O)/C(=C/c2ccc(-c3ccc(F)cc3O)o2)S1 [AS252424] (first compound 0.0005 µM, partner dose 5 µM), for which the cell count came out at 40.5%.

With `N#CC[C@H](C1CCCC1)n1cc(-c2ncnc3[nH]ccc23)cn1` [ruxolitinib] + C[C@@H](Oc1cc(-c2cnn(C3CCNCC3)c2)cnc1N)c1c(Cl)ccc(F)c1Cl [Crizotinib] (first compound 5 µM, partner dose 1 µM), the cell count was 90.9%.

In the case of `Cc1cc(Nc2cc(N3CCN(C)CC3)nc(Sc3ccc(NC(=O)C4CC4)cc3)n2)n[nH]1` [Tozasertib] + NCC(=O)Nc1ccc(-n2nc(C(F)(F)F)cc2-c2ccc3c(ccc4ccccc43)c2)cc1 [OSU03012] (first compound 0.03 µM, partner dose 5 µM), the cell count amounted to 71.2%.
